Measured values published in PubChem BioAssay AID686978 (National Center for Advancing Translational Sciences (NCATS), 2013).
Among all 420,000 compounds or so, about 64,000 (15%) were called active. Inconclusive means that the source gave no clear call. Such entries were picked first, then a sample of the others. Calls follow the shape of the dose curve; as a rule, active = well fitted inhibition curve with a large enough effect; inconclusive = small, poorly fitted or top-dose-only effect; inactive = flat fitted curve, though single readings scatter. Potencies of inconclusive entries are left out as doubtful fits.

assay: qHTS for Inhibitors of human tyrosyl-DNA phosphodiesterase 1 (TDP1): qHTS in cells in absence of CPT; conditions: DT40 Tdp1-/- hTDP1 cells, no CPT, ATP luminescence, 48 h; activity change, negative = growth inhibition: at 46.2 µM (top of the series) unless noted; also: nearly all actives have a fitted effect of over 55% in size
In short: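 Chicken DT40 Tdp1-/- cells stably complemented with human TDP1 were seeded at 400 cells/well with DMSO in place of 20 nM camptothecin. After compound pinning, cells grew at least 48 hr at 37 °C; viability read by CellTiter-Glo luminescence.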
% is scaled to controls: 0 for no effect and ±100 for the full control effect; potency is read from the fitted curve at half-maximal effect; tags tell the direction and shape of the fitted curve.

Q: With `CCCc1nnc(SCC(=O)Nc2cccc(Cl)c2Cl)o1` as the molecule, how does the Potency read?
A: The Potency was “inactive”.

Q: With `COc1ccc(Cl)cc1NC(=O)COC(=O)C1COc2ccccc2O1` (stereo unspecified) as the molecule, how does the Potency read?
A: Its Potency is “inactive”.

Q: Which Potency does the source give for `NC(=O)c1ccc(Cn2c(C(=O)c3cc(Cl)c(N)c(Cl)c3)c3ccccc3[n+]2[O-])cc1` here?
A: The Potency was inconclusive [inhibitor, single point].

Q: Which Potency does the source give for `COC(=O)c1c(NC(=O)COC(=O)[C@@H](NS(=O)(=O)c2ccccc2)C(C)C)sc2c1CCC2` here?
A: Its Potency is inconclusive [inhibitor, single point].

Q: Which Potency does the source give for `O=C(NC1CCCCCC1)C1CCN(C(=O)c2ccc(Cl)cc2)CC1` here?
A: Its Potency is inconclusive [inhibitor, single point].

Q: With `CC(C)C[C@H]1CN(CCCC[C@H]2CNC(=O)C(=O)N2CCc2ccccc2)C(=O)C(=O)N1CCc1ccc(O)cc1` as the molecule, how does the Potency read?
A: The Potency was “inactive”.

Q: With `CCOc1ccc(Br)cc1S(=O)(=O)NCC(c1ccc(OC)cc1)N1CCOCC1` (stereo unspecified) as the molecule, how does the Potency read?
A: Its Potency is inconclusive [inhibitor, single point].

Q: Which Potency does the source give for `CC(=O)Nc1cc2nc(C)n(Cc3ccccc3[N+](=O)[O-])c2nc1C` here?
A: Its Potency is “inactive”.

Q: For `CS(=O)(=O)N1CCN(c2ccccc2NC(=O)c2ccco2)CC1`, which Potency is on record?
A: Its Potency is “inactive”.

Q: With `CCNC(=O)C1(C)CCN(C(=O)c2ccc(C)c(F)c2)C1` (stereo unspecified) as the molecule, how does the Potency read?
A: The Potency was “inactive”.

Q: Which Potency does the source give for `Cc1ccc2c(CSc3nncn3C)cc(=O)oc2c1C` here?
A: Its Potency is “inactive”.

Q: For `CCCCS(=O)(=O)N[C@@H](Cc1ccc(OCCCCC2CCNCC2)cc1)C(=O)O`, which Potency is on record?
A: The Potency was “inactive”.

Q: With `COc1ccc(/C=N/Nc2cc(N(C)C)nc(N(C)C)n2)cc1` as the molecule, how does the Potency read?
A: Its Potency is inconclusive [inhibitor, single point].

Q: For `O=C1c2c(-c3ccc(Br)cc3)noc2CCN1Cc1cn(Cc2cccnc2)nn1`, which Potency is on record?
A: The Potency was inconclusive [inhibitor, single point].

Q: Which Potency does the source give for `Cc1ccc(S(=O)(=O)N(Cc2ccccc2)c2ccccc2C(=O)NCc2ccco2)cc1` here?
A: Its Potency is inconclusive [inhibitor, partial curve, poor fit].

Q: With `CCCCN1C(=O)/C(=C/C=C2\SCCN2C)SC1=S` as the molecule, how does the Potency read?
A: Its Potency is “inactive”.

Q: For `COc1ccccc1CNC(=O)CCCN1C(=O)COc2ccc(C)cc21`, which Potency is on record?
A: The Potency was “inactive”.

Q: Which activity change, negative = growth inhibition does the source give for `CCCCCCCC(=O)NN=C1CCN(Cc2ccccc2)CC1` here?
A: The activity change, negative = growth inhibition was inconclusive: -37% [inhibitor].

Q: With `CN(Cc1ccccc1)C(=O)COC(=O)c1cc([N+](=O)[O-])ccc1N1CCOCC1` as the molecule, how does the Potency read?
A: Its Potency is inconclusive [inhibitor, single point].

Q: Which Potency does the source give for `CCOc1ccc(C(Nc2ccc(C)cc2)P2(=O)OCCC(C)O2)cc1` (stereo unspecified) here?
A: The Potency was inconclusive [inhibitor, single point].

Q: Which Potency does the source give for `CCCCn1nnnc1C1(C)CCC(=O)N1CC1CCCCC1` (stereo unspecified) here?
A: Its Potency is “inactive”.
